# Some of the results follow.
# B1: chrX:12171913:12171914:+_ENSMUSG00000031007_ENSMUST00000033313|perfect_dup|FALSE|FALSE (ssRNA)
# RNA: GGGAGUUCUACAGUCCGACGAUCCCUGGUAUAGGCCAAUUUCCAUUUCGGAAAACAACAGACCCUGGCGAUCUUAAUAUGCUAAAUUCAUUCCCUAAAGCACCCGCCACCAGAAAGAACAGGAGAACGACCAGCACAGCCAUGCAACAGAGGAUUGAGCAUCA
# B2: chr15:81680702:81680703:-_ENSMUSG00000048546_ENSMUST00000050467|mus_mus|FALSE|FALSE (ssRNA)
# RNA: GGGAGUUCUACAGUCCGACGAUCGAGAGAGAGUUGAGGCUAGGGCCAGACUUAUUUGGGUGGCAGGCCCUGAGAAGACAGCUAGGUUGGGGGUUGUGGACACGGGGGUGGAGGGUGGGGGGGUGUCAGCCUCUCCCUGUUUCACAACAGAGGAUUGAGCAUCA
# B3: chr1:63223577:63223578:+_ENSMUSG00000025967_ENSMUST00000129339|mus_hu|FALSE|FALSE (ssRNA)
# RNA: GGGAGUUCUACAGUCCGACGAUCAAGGUCAAAGUACUUUUGCAUUCCCACUUCUCCACGUACGAAUUGGGGGCCCUGAAUUAAAUGGCCCACAAAUUGUCCAUGGACCUUUCGUUGCGUUUGGAAGUAAAUUAAUAAAAUAGGCAACAGAGGAUUGAGCAUCA
# B4: chr1:145602572:145602573:-_ENSMUSG00000018199_ENSMUST00000159879|mus_mus|FALSE|FALSE (ssRNA)
# RNA: GGGAGUUCUACAGUCCGACGAUCCUGUUCAAGGCCAGCCUGGUCUACACAGUGAGCUCUAGAAUAGCCAGGACUAUGUCUAUGGAGAGAGACCCUGUCACAAAACAAAACAAAACAAAACAAAAUAACCAUCACACACACAUCCAACAGAGGAUUGAGCAUCA
# B5: 91956291_91961813_1463_CDS_ENSG00000187742_ENST00000375807|human|control|control (ssRNA)
# RNA: GGGAGUUCUACAGUCCGACGAUCGACUGGCACUGCUCCAACUGAGACUACCACUGGUUUGGAGGACUGCUUUGCAUGCUGAGAGUGCUGCUUCUUCUCCAGGGCUGUCAGCAUGCCCCCCAAGUCCAACUGCACUGGAAGCUGCAACAGAGGAUUGAGCAUCA
# B6: chr6:40197388:40197389:+_ENSMUSG00000057716_ENSMUST00000061740|mus_mus|mus_mus_mus_hu_False|28_108 (ssRNA)
# RNA: GGGAGUUCUACAGUCCGACGAUCGAGUUGUCAGUUUGGAUUUAUUCCACCUCUGUUUGGGUGCUAGCCACUAAGACUGUUAUUUUGGGAUUCAUGGCCUUGAAUAUCAAGAGGAAAAGGAAGAGGAUGGAAAGAGUCAAGAGUCAACAGAGGAUUGAGCAUCA
# B7: chr16:2814526:2814527:+_ENSG00000167978_ENST00000301740|hu_mus|FALSE|FALSE (ssRNA)
# RNA: GGGAGUUCUACAGUCCGACGAUCAACCUCAGGAGAAAAGCCAGUAUUUACUUCUGAAACAGGGCCUGAGUUUUUAAACUCUAAAGAUGACUCAAAGCUAUUCUCCCUUGGGGGAGAAUGAGAUAGUUCUUUAUGCUCUGGAGACAACAGAGGAUUGAGCAUCA
# B8: 98493395_98495435_728_CDS_ENSG00000196367_ENST00000355540|human|control|control (ssRNA)
# RNA: GGGAGUUCUACAGUCCGACGAUCUAUCAUACCAACCAUUUCUGGGGGAGGCACUGUGUUCUCGGGGAUCACUUGAGGGUUCUCAAAGUAGCGGUUCACUACUUUUGGAAGCUCCUUGUAAAUCUGUUUCACAAAAUCCAGAAACAACAGAGGAUUGAGCAUCA
# B9: chr11:4127340:4127341:+_ENSG00000167325_ENST00000300738|hu_mus|hu_hu_hu_mus_False|88_88 (ssRNA)
# RNA: GGGAGUUCUACAGUCCGACGAUCGGCAUAGUCAGGGUGCUUCGUGGUCAAGGUUGCGGCUGUCUCAGCAGCCAGGGUGUCCAGUUCCACUGUGGUGACCCCACUAUAUAGGCCUUGGAUUACUUUCAUGGUGAUCUGAGCAGGCAACAGAGGAUUGAGCAUCA
# B10: chr17:35253193:35253194:-_ENSMUSG00000024387_ENSMUST00000025246|mus_mus|motif|central (ssRNA)
# RNA: GGGAGUUCUACAGUCCGACGAUCGGCCUUUUCUUCCUUUAUUUCAUAUUCCCACCACAGUAACAAUUCCUUUAAUUUAAACGGAAAACCAUAGACUUCCUGAAAGGGUGGCAGCAGAGGAAUGGUGGUGUCACAGACAGAGGGCAACAGAGGAUUGAGCAUCA
# B11: chr2:217001844:217001845:+_ENSG00000079246_ENST00000392132|hu_hu|hu_hu_hu_mus_False|68_78 (ssRNA)
# RNA: GGGAGUUCUACAGUCCGACGAUCACCAACUUGAGGAUUAGAUCUUUUGUCAUAAGCAUAUCGAACUAUGGCCACCAUGUUUAACUCAUCCAAAGCAUGAACGAGAGAGGAAAGGGCAACAGCUGCCGCCUCAUCAUCCUUUGCCAACAGAGGAUUGAGCAUCA
# B12: chr19:53463844:53463845:-_ENSMUSG00000025024_ENSMUST00000025997|mus_mus|FALSE|FALSE (ssRNA)
# RNA: GGGAGUUCUACAGUCCGACGAUCUCAUUUUCUCCAUUUCCAGAAAGGGCAGCUUCUACUUGCUGGAGUUGAGCUUUGUAGCUAGCCAACUGUUUUGCUAGAUCCUCUGACAUCUUGGGUGGGGCUGGGGUCGGGACGGCGGGCCAACAGAGGAUUGAGCAUCA
# B13: chr17:21088332:21088333:+_ENSMUSG00000007564_ENSMUST00000007708|mus_mus|motif|central (ssRNA)
# RNA: GGGAGUUCUACAGUCCGACGAUCCUCACUUCUGGUCCGUUCAACCCCAAGGGCCAAGGCAAUUGUGGAGAGCUUCUUGAUACGGUUGAGACGAAGCUGAACGUCCUCAUUGCGGAGUUCAUCUAUGAGCACCGCAAUAGGAUACAACAGAGGAUUGAGCAUCA
# B14: 50987589_50987709_1136_3pUTR_ENSMUSG00000017144_ENSMUST00000017288|mouse|control|control (ssRNA)
# RNA: GGGAGUUCUACAGUCCGACGAUCUUCGCUUCUCACCACUCGGUCUACAUGCCGAAACUAAGGACAGGAUUCCGAAAAGUGGGUAUCCUUUCAAGGGCCUCCUAAGCCUGUAUCUAUGUGACUUUGGCUGUGCACUUCAUUUGACAACAGAGGAUUGAGCAUCA
# B15: chr1:100327937:100327938:+_ENSG00000162688_ENST00000361915|hu_mus|motif|central (ssRNA)
# RNA: GGGAGUUCUACAGUCCGACGAUCCUCCUUUGCCACCCUUAGCCGGCUUUCCCACUCAUCGAAGGGUCCUAAGCACUUUGCGGAGAACGUCUGCAGAGUAACACAGUCCAAGGGUAACACGUGGUUAUCAACUCCAAUGCGUAACAACAGAGGAUUGAGCAUCA
# B16: chr4:76721835:76721836:+_ENSG00000138768_ENST00000264904|hu_mus|hu_hu_hu_mus_True|48_78 (ssRNA)
# RNA: GGGAGUUCUACAGUCCGACGAUCGUUUGGCUGGGGUUUCUGAGACGCUCUGGAAUAAACUCAUGUUUUGCUAAUAAAUCCUAGUUUUCUAUGAAAUUUCUCUUUGCCAAUCCUCUUCUCUAUUAGUUGCUUUAGUUUCUCUUUCAACAGAGGAUUGAGCAUCA
# B17: chr11:62190249:62190250:-_ENSMUSG00000018501_ENSMUST00000155712|mus_hu|FALSE|FALSE (ssRNA)
# RNA: GGGAGUUCUACAGUCCGACGAUCAGCAGAAACAGUGGAAGCGACACUUUCACAUUGAGACACAUCUCGCUCUUCACGAGGUUUUCGUGAAGUUUUCUGUUUAUGCUGCUGUAAGAGGUUGUCAAGAUUGUGUCGCCUUUUAUACAACAGAGGAUUGAGCAUCA
# B18: chr20:36033742:36033743:+_ENSG00000197122_ENST00000358208|hu_mus|FALSE|FALSE (ssRNA)
# RNA: GGGAGUUCUACAGUCCGACGAUCGUGUUUAAUCAGACAGUAUGCAAAAUAUGUACAACAAGUCUGGGUCCCCCUCCCCCAAGCCUGGGCAUGGAAUGUGGGAUCCCCAGGCCCUGCCCAGAGCUGGGGAGGGGUCCCCAAGGCCAACAGAGGAUUGAGCAUCA
# B19: chr10:60895279:60895280:-_ENSMUSG00000020091_ENSMUST00000020288|mus_hu|motif|central (ssRNA)
# RNA: GGGAGUUCUACAGUCCGACGAUCCACUGGAAGAUGUUUAAUUAAAAAGUUGCUGUUCAAAAUUGUACUGAAAACAUAUCGGAAAAUAGGUCUGUAGUCAUCUUAAAAAUAAAAGGUCACUUCUCAGAUAAGAGGAGUGACAGACAACAGAGGAUUGAGCAUCA
# B20: chr3:53254358:53254359:-_ENSMUSG00000042997_ENSMUST00000130348|mus_mus|FALSE|FALSE (ssRNA)
# RNA: GGGAGUUCUACAGUCCGACGAUCCAGAAGUCAAAAUCCCAGCACAGAGCAGGGAGGGGCUCAUGAAGCCUACCACGAACUAAGAAGCUACUGGAGGUAGCUGUGGGGGACCUUUCCUAAAAGGUGACCCUGCUUCGAGGAGUGCAACAGAGGAUUGAGCAUCA
# B21: chr4:104905227:104905228:+_ENSMUSG00000028517_ENSMUST00000064139|mus_hu|FALSE|FALSE (ssRNA)
# RNA: GGGAGUUCUACAGUCCGACGAUCACAAAAUGGAACCUUACAAAAAUACUGACAAUUUAAUGUUUUUAUACAGUUUUCUCUAGUUGCAGUUAUUUCAUUAUAAAACAAUGUCUACCACAGAACUAUGAUAUUUUAGUUGAUAUUCAACAGAGGAUUGAGCAUCA
# B22: chr16:11966626:11966627:-_ENSG00000103342_ENST00000563468|hu_mus|motif|central (ssRNA)
# RNA: GGGAGUUCUACAGUCCGACGAUCUUUUAACAUGUGCAGACACACUCCCACACUCAGAAUCAUCUGCCUGGGGGAAAAAGACGGACGGUGCCUAAGAAGAAAAUGAAAAAUAAAAAAAUUCCUGUAGGUUUUCAUUAUUGUAGGCAACAGAGGAUUGAGCAUCA
# Target: T1, UNK ZnF1-3 (human, UniProt Q9C0B0 31-174)
# T1 sequence: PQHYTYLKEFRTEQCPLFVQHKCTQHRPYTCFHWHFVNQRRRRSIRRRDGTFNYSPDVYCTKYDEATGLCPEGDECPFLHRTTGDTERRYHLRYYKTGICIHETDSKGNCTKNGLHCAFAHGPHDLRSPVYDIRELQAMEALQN
# Assay: nsRBNS (natural sequence RNA bind-n-seq); RBNS binding buffer (assumed for nsRBNS): 25 mM Tris pH 7.5, 150 mM KCl, 3 mM MgCl2, 0.01% Triton X-100, 500 ug/ml BSA, 20 U/ml SUPERase-In, 4 C; UNK is unkempt and MSI1 is Musashi-1; names of the RNAs are library labels; protein concentration not given here; high values mean tight binding
row,Binder,binding signal
1,B1,1.61 enrichment R
2,B2,1.5 enrichment R
3,B3,1.31 enrichment R
4,B4,1.73 enrichment R
5,B5,0.862 enrichment R
6,B6,1.56 enrichment R
7,B7,1.17 enrichment R
8,B8,0.892 enrichment R
9,B9,0.985 enrichment R
10,B10,1.98 enrichment R
11,B11,1.89 enrichment R
12,B12,0.867 enrichment R
13,B13,0.624 enrichment R
14,B14,0.834 enrichment R
15,B15,0.843 enrichment R
16,B16,0.567 enrichment R
17,B17,0.655 enrichment R
18,B18,0.597 enrichment R
19,B19,1.58 enrichment R
20,B20,1.16 enrichment R
21,B21,0.491 enrichment R
22,B22,1.82 enrichment R

# From paper PMC12136788
